Measurements published in the BET-seq Pho4 binding data (Le et al. 2018).
This is one part of the list. Values were computed here from the reads of four pooled replicates and scatter widely.

target: T1, Pho4 (S. cerevisiae) (UniProt P07270); test: relative binding free energy (BET-seq); higher = weaker binding; settings: reference: library average
T1 sequence: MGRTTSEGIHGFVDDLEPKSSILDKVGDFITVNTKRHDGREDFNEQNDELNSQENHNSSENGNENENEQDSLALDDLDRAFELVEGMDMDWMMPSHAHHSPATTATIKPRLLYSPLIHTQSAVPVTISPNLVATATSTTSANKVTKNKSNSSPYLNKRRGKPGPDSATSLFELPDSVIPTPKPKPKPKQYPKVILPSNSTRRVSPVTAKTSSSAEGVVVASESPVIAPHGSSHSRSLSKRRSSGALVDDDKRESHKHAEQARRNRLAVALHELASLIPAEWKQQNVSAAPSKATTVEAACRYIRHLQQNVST

| Sequence | relative binding free energy |
| --- | --- |
| GATGTCACGTGGGACA | 0.08 kcal/mol |
| TTGCGCACGTGACAGG | 0.06 kcal/mol |
| TATCTCACGTGTATGG | 0.25 kcal/mol |
| CGAGTCACGTGTTGAG | 0.12 kcal/mol |
| CGTTACACGTGGAATG | 0.23 kcal/mol |
| GGATTCACGTGTTCTT | 0.29 kcal/mol |
| GCGTGCACGTGTTGGA | 0.04 kcal/mol |
| ATGCACACGTGGGGTT | -0.21 kcal/mol |
| AGAAGCACGTGAGTTA | 0.24 kcal/mol |
| CGTTGCACGTGGGGTT | -0.15 kcal/mol |
| TGCCTCACGTGGGGCG | 0.12 kcal/mol |
| GTAAACACGTGAGTGT | 0.22 kcal/mol |
| GGAGTCACGTGTAGCT | 0.21 kcal/mol |
| TTCTGCACGTGTGTGT | 0.07 kcal/mol |
| TGATTCACGTGGATGC | 0.45 kcal/mol |
| TCTCTCACGTGGGTGG | 0.06 kcal/mol |
| TCGAGCACGTGTGGTG | -0.09 kcal/mol |
| TTTTTCACGTGTTCTG | 0.31 kcal/mol |
| TTTGGCACGTGCAGAA | -0.17 kcal/mol |
| TGGGTCACGTGAACGA | 0.31 kcal/mol |
| AGGATCACGTGTTTGT | 0.19 kcal/mol |
| CTGTTCACGTGTAATG | 0.2 kcal/mol |
| AGTTTCACGTGCTTGT | 0.28 kcal/mol |

| Sequence | relative binding free energy |
| --- | --- |
| CGTATCACGTGTTTGA | 0.13 kcal/mol |
| GATTTCACGTGCAGTT | 0.2 kcal/mol |
| AAGGGCACGTGTATAA | 0 kcal/mol |
| GGTGTCACGTGTGGAG | 0.17 kcal/mol |
| GGATACACGTGTTGTT | 0.12 kcal/mol |
| AGGGCCACGTGGTCGA | -0.05 kcal/mol |
| AGTGGCACGTGGAAGA | -0.07 kcal/mol |
| GTTGGCACGTGTAATT | 0.05 kcal/mol |
| TTATGCACGTGACGTA | 0 kcal/mol |
| GAGGTCACGTGGGAGT | 0.04 kcal/mol |
| TATGTCACGTGGGTCG | -0.15 kcal/mol |
| AGATACACGTGATGGT | 0.2 kcal/mol |
| AATGTCACGTGGCGGG | 0 kcal/mol |
| GGTTGCACGTGATAAA | 0.11 kcal/mol |
| GGATTCACGTGTTGGG | 0.35 kcal/mol |
| TTAAGCACGTGTTGGC | 0 kcal/mol |
| TAAGTCACGTGGACTG | 0.07 kcal/mol |
| TAATGCACGTGTGCCG | 0.14 kcal/mol |
| AATATCACGTGTGTGC | 0.24 kcal/mol |
| CGTCTCACGTGGTGTT | 0.21 kcal/mol |
| TTTCACACGTGGTTTC | 0.21 kcal/mol |
| GGAGTCACGTGACATG | 0.32 kcal/mol |
| TTGTACACGTGCGTAG | -0.09 kcal/mol |

| Sequence | relative binding free energy |
| --- | --- |
| AGGCTCACGTGGGCGG | 0.02 kcal/mol |
| GATGACACGTGCTTGT | 0.05 kcal/mol |
| GGGAACACGTGGCTGT | -0.08 kcal/mol |
| CGGTTCACGTGGGGGA | 0.11 kcal/mol |
| ACGCGCACGTGTGGTG | -0.16 kcal/mol |
| TCAGTCACGTGGGAAG | -0.08 kcal/mol |
| GATTGCACGTGTTATA | 0.03 kcal/mol |
| GTTGTCACGTGTGGAA | 0.08 kcal/mol |
| TTAGACACGTGGCGGT | 0 kcal/mol |
| TAGTCCACGTGGGGAT | -0.12 kcal/mol |
| TATGACACGTGGAAAT | 0.26 kcal/mol |
| AGGGGCACGTGGTCTA | -0.27 kcal/mol |
| TTTGTCACGTGAGGTT | 0.33 kcal/mol |
| TGTATCACGTGGCGGG | 0.04 kcal/mol |
| TGGTGCACGTGTCAGC | -0.03 kcal/mol |
| TTGGCCACGTGAATTG | 0.28 kcal/mol |
| TCGGTCACGTGAGTGC | 0.22 kcal/mol |
| GGGCTCACGTGAAAGG | 0.35 kcal/mol |
| GGGTTCACGTGATATT | 0.44 kcal/mol |
| TTTTACACGTGGGGGC | 0.04 kcal/mol |
| CGATGCACGTGTGTGT | 0.04 kcal/mol |
| TTAATCACGTGTCATG | 0.01 kcal/mol |
| GATGTCACGTGAATTG | 0.22 kcal/mol |

| Sequence | relative binding free energy |
| --- | --- |
| GATGTCACGTGGTTAG | 0.25 kcal/mol |
| TAACGCACGTGTGTGT | -0.3 kcal/mol |
| TTGATCACGTGCAGTG | 0.15 kcal/mol |
| AGAGTCACGTGGTTGG | 0.06 kcal/mol |
| TGCGTCACGTGTATTG | 0 kcal/mol |
| TTTTTCACGTGACTTT | 0.36 kcal/mol |
| ATTTCCACGTGTTGGT | 0.04 kcal/mol |
| CTGGTCACGTGCGAGG | 0.11 kcal/mol |
| TTTGTCACGTGAGTTC | 0.38 kcal/mol |
| GTCGTCACGTGTGCTT | 0.09 kcal/mol |
| GGCCTCACGTGCGGGG | 0.04 kcal/mol |
| TTGGTCACGTGTCCTG | 0.14 kcal/mol |
| TGGCTCACGTGGGTGT | 0.07 kcal/mol |
| AAAAGCACGTGGTGGC | 0.01 kcal/mol |
| GGGTGCACGTGGACGC | -0.07 kcal/mol |
| TAGGGCACGTGCAGGG | -0.09 kcal/mol |
| GGATACACGTGATGTG | 0.22 kcal/mol |
| GTGTACACGTGCGGAG | -0.16 kcal/mol |
| GAAGTCACGTGGTTTG | 0.2 kcal/mol |
| ATGGTCACGTGTGTTT | 0.21 kcal/mol |
| CTTTTCACGTGGATGC | 0.35 kcal/mol |
| TAGAGCACGTGGGTAA | -0.31 kcal/mol |
| TGAAGCACGTGGGGGT | -0.19 kcal/mol |

| Sequence | relative binding free energy |
| --- | --- |
| AGCCGCACGTGGGGGC | -0.23 kcal/mol |
| TGTAGCACGTGTTCAT | -0.12 kcal/mol |
| TTGTTCACGTGCGGGC | 0.27 kcal/mol |
| CGTGTCACGTGGGGAC | -0.16 kcal/mol |
| GAAGACACGTGAGTTT | 0.25 kcal/mol |
| GGGGTCACGTGCAACG | 0.22 kcal/mol |
| TGATACACGTGTGTGT | 0.05 kcal/mol |
| GCTGGCACGTGGAGTA | -0.12 kcal/mol |
| ATGGACACGTGTTTAT | -0.05 kcal/mol |
| GATGACACGTGGCATG | 0.08 kcal/mol |
| TAAGGCACGTGAATAT | 0.13 kcal/mol |
| CTGCTCACGTGATTGG | 0.32 kcal/mol |
| GTTGGCACGTGGCAAG | -0.13 kcal/mol |
| AAGGCCACGTGAGGGT | 0.13 kcal/mol |
| GAGTTCACGTGGGACT | 0.31 kcal/mol |
| ACAGTCACGTGGGTGA | -0.18 kcal/mol |
| AGTTACACGTGGCAGG | -0.01 kcal/mol |
| AATAGCACGTGATGTC | 0.13 kcal/mol |
| ATGTGCACGTGTAAGA | 0.09 kcal/mol |
| GTGTACACGTGTGGTC | 0.03 kcal/mol |
| GTTGGCACGTGAGTGT | 0.19 kcal/mol |
| GGTCTCACGTGAGGGG | 0.28 kcal/mol |
| GTTGTCACGTGAATGG | 0.19 kcal/mol |
